Assay results as given in the supplement of paper PMC12636428.

System: Saccharomyces cerevisiae
Assay: transcriptional activation domain activity (GFP:mCherry ratio, weighted mean of sorted bins, harmonized to initial dataset scale) (arbitrary fluorescence ratio units); higher = stronger transcriptional activation
Conditions: beta-estradiol 1 µM; induction time 4 h
Protocol: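 53-aa protein tiles (fungal proteins plus yeast TF control tiles) fused C-terminally to a DBD-estrogen-binding domain-mCherry synthetic TF, integrated in S. cerevisiae (URA3 locus) with a GFP reporter. Cells were induced with 1 uM beta-estradiol for 4 h at 30 C, FACS-sorted into 8 bins by GFP:mCherry ratio and barcodes sequenced. Activity is the read-weighted mean bin fluorescence (GFP:mCherry), averaged over barcodes (median 12); tiles under 50 reads were discarded. New active-learning values were harmonized by linear fit onto the scale of the initial (Hummel et al.) dataset. The assay saturates at low and high signal.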

Row | Sequence | transcriptional activation domain activity
1 | EVMKIKPVQKQTRAGQRTRFKAIVVIGDSNGHVGLGIKTSKEVATAIRAAIII | 56300
2 | MKIKSVQKQTRAGQRTRMKAIVVLGDSNGHVGLGIKTAKEVATAIRAAIIIAK | 55900
3 | KDEVMKIKPVQKQTRAGQRTRFKAVVVIGDSNGHVGLGIKTSKEVATAIRAAI | 67100
4 | EVMKIMPVQKQTRAGQRTRFKAFVVIGDSNGHVGLGVKCSKEVATAIRGAIIL | 36600
5 | DEVMKIMPVQKQTRAGQRTRFKAFVVIGDSNGHVGLGVKCSKEVATAIRAAII | 43500
6 | RSMPIRKDDEVLIVRGKDKGKEGKVVQVYRKKWVIHVERVTKDKTNGATVQIG | 33500
7 | EVMKIKPVQKQTRAGQRTRFKAVVIIGDSEGHVGLGIKTSKEVATAIRAAIII | 46400
8 | EVMKIMPVQKQTRAGQRTRFKAFVVIGDHNGHVGLGVKCSKEVATAIRGAIIL | 44200
9 | LKDEVMKIKPVQKQTRAGQRTRFKAIVVIGDSEGHVGLGIKTSKEVATAIRAA | 57000
